Measurements as given in US12377072B2, “Modulators of GTPases and their use” (priority 2010, dated 2025).
Where two headings read alike, the source gives them in different places.

Legend:
COX enzymes = conditions: cited from earlier work
[1] = ref [29]; cited from earlier work
Rac1 [2] = target: T1, Rac1 (Homo sapiens, UniProt P63000); assay: GLISA cellular assay of activated Rac1 (Pak-binding plate assay); type: cell-based
Experimental: (§1) (A) GLISA measures cellular effects of small molecules on Rac1. […] Equal cell lysate protein was assayed for activated Rac1 using a commercial, plate based Pak-binding assay according to manufacturer's instructions (GLISA, Cytoskeleton, Inc.). […] Rac1 crystal structure used to dock molecules via FRED (OpenEye).
(§2) GLISA is extensively used for measuring EGF-stimulated Rac and Cdc42 activation in Swiss 3T3 cells in the presence and absence of test compounds. […] GLISAs in are highly specific, quantitative, can be performed with small sample sizes (<50 μg of cell lysate per assay, compared to 1-10 mg required for conventional PAK binding assay) and have excellent reproducibility. To assess the inhibitory effects of the small molecules in Table 2, preincubate cells for 15-60 min (times that establish detection of acute GTPase inhibition) with varying concentrations of each compound as described. NSC23766 serves as a positive control for Rac1 inhibition. […] Activated RhoA is also measured by GLISA following lysophosphatidic acid stimulation as an additional specificity control as needed.

Cdc42 = target: T2, Cdc42 (Homo sapiens, UniProt P60953); assay: GLISA cellular assay of activated Cdc42; type: cell-based; conditions: cells +/- EGF
T2 construct: endogenous in cells; host or cells: OVCA429 / OVCA433 and/or Swiss 3T3 cells
Experimental: as §1, §2

ovarian tumor cells [3] = assay: Ovarian tumor cell proliferation; type: cell-based, human; conditions: data not shown
[4] = rodents; cited from earlier work
[5] = humans; cited from earlier work
SKOV3ip cells [6] = assay: Ovarian tumor cell migration, modified Boyden chambers
[7] = mouse, in vivo, po, 1 mg/kg; cited from earlier work
Rac1 [8] = target: T1, Rac1; conditions: purified protein
SKOV3ip cells [9] = assay: Intraperitoneal xenograft of GFP-tagged SKOV3ip cells in athymic nude mice; conditions: oral in dough, 2 weeks of tumor growth
OVCA 429 cells [10] = assay: Multicellular aggregate (MCA) formation, hanging drop; conditions: FIG. 4C, 100 μM, 24 h
OVCA 429 cells [11] = assay: Ovarian tumor cell migration, modified Boyden chambers; conditions: OVCA 429, FIG. 4A
ovarian tumor cells [12] = assay: Planned ex vivo, 3D and organotypic studies of MCA formation, migration and invasion; type: cell-based, human; conditions: prediction for planned studies
Experimental: To more closely approximate adhesive events that occur during intraperitoneal dissemination in vivo uses organotypic cultures. Organotypic cultures and 3DCI gels are generated as previously described [35; 128-131]. Briefly, type I collagen gels with embedded fibroblasts are overlaid with a confluent layer of mesothelial cells (LP9) in 24 well plates or transwells containing a porous filter. Alternatively, 3DCI gels are evaluated in the absence of mesothelial cells to mimic mesothelial cell retraction and exposure of the underlying FCM. Adhesion and invasion of cells labeled using membrane permeable fluorescent dyes (CMFDA, Invitrogen) are enumerated using fluorescent microscopy [128; 131]. Expansive growth in 3D collagen is measured after cell growth for 6-10 d using morphometric analysis of proliferative aggregate dimensions and quantitation of the number and size invasive projections, as described previously.
The studies focus on the impact of identified small molecules on distinct mechanisms of metastasis in ovarian cancer (FIG. 7) and obtain detailed information adhesive events (cell:cell for MCAs or cell:mesothelium ex vivo and in vivo), invasion, growth and survival. […]

Rac1 [13] = target: T3, Rac1 (Mus musculus, UniProt P63001); conditions: 10 mg/kg/day, cited from earlier work
T3 construct: host or cells: mouse kidney

breast cancer = conditions: presurgical administration; cited from earlier work
Rho GTPase = conditions: ref [15]; cited from earlier work
ovarian metastasis = conditions: xenograft model, ref [15]; cited from earlier work
prostate cancer = conditions: ref [30]; cited from earlier work
[14] = GLISA, cells +/- 10 ng/ml EGF for 2 min

T2 sequence (P60953 whole entry): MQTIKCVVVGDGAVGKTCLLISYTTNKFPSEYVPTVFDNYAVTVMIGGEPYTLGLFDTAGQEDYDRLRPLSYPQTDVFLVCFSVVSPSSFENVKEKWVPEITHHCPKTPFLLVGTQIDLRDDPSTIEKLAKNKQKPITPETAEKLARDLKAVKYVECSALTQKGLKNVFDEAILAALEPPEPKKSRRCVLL

For `COc1ccc2cc([C@H](C)C(=O)O)ccc2c1` [S-naproxen], the “inhibitory activity against COX enzymes” value (COX enzymes; ref [22]) is listed as 50-70% and the epimerization [1] is listed as “not significantly subject to epimerization”.
For `O=C(c1ccccc1)c1ccc2n1CC[C@H]2C(=O)O` [R-ketorolac], the “inhibition of Rac1 GTPase activity” value (Rac1 [2]; [14]) was “inhibit”, the “inhibition of Cdc42 GTPase activity” value (Cdc42) was “inhibit” and the “inhibition of ovarian tumor cell proliferation” value (ovarian tumor cells [3]) was “little inhibition”. For the same compound, the “interconversion between R- and S-forms” value [4] was “little interconversion”, the “interconversion between R- and S-forms” value [5] was “none detectable” and the “inhibition of ovarian tumor cell migration” value (SKOV3ip cells [6]; 24 h) was “inhibits”. It also gave an IC50 (SKOV3ip cells [6]; read-out: IC50 ovarian tumor cell migration, FIG. 4B) of ~10 µM.
In the case of `O=C(c1ccccc1)c1ccc2n1CC[C@@H]2C(=O)O` [S-ketorolac], the “inhibition of ovarian tumor cell proliferation” value (ovarian tumor cells [3]) is listed as “little inhibition” and the GI toxicity [7] is listed as “dose dependent and low, but detectable”.
With `COc1ccc2cc([C@@H](C)C(=O)O)ccc2c1` [R-naproxen] the “inhibition of Rac1 GTPase activity” value (Rac1 [2]; [14]) was “inhibit”, the “inhibition of Rac1 GTPase activity” value (Rac1 [2]; OvCA cell lines (429 and 433)) was “inhibits” and the “activity against Rac1 in library screen” value (Rac1 [8]) was “active”. The “inhibition of COX enzymes” value (COX enzymes; >25 μM, ref [22]) was 10-20%, the “effect on tumor number versus placebo (words)” value (SKOV3ip cells [9]; 10 mg/kg) was “decreased the number of implanted tumors” and the “reduction in tumor number” value (SKOV3ip cells [9]; 10 mg/kg) was 4 fold. The “effect on tumor number versus placebo (words)” value (SKOV3ip cells [9]; 10 mg/kg, listed as R-Naproxen) was “reduces tumor number” and the “decrease in total tumor burden” value (SKOV3ip cells [9]) was 36%.
In the case of `COc1ccc2cc(CC(=O)O)ccc2c1` [6-MNA, 6-methoxy-2-naphthalene acetic acid], the “inhibition of ovarian tumor cell proliferation” value (ovarian tumor cells [3]) is reported as “little effect”, the “inhibition of MCA formation” value (OVCA 429 cells [10]) is reported as “little effect” and the “inhibition of ovarian tumor cell migration” value (OVCA 429 cells [11]) is reported as “little effect”.
In the case of `CCN(CC)CCCC(C)Nc1nc(C)cc(Nc2ccc3nc(C)cc(N)c3c2)n1` (stereo not drawn) [NSC23766], the “inhibition of ovarian tumor cell proliferation” value (ovarian tumor cells [3]) is given as “inhibit”, the “MCA formation, cell migration and cell invasion (predicted)” value (ovarian tumor cells [12]) is given as “will decrease” and the organ toxicity (Rac1 [13]; 6 weeks continuous dosing) is given as “without apparent evidence of organ toxicity”. For the same compound, the “Rac1 activity in target tissue (kidney)” value (Rac1 [13]; osmotic minipump) was “reduced Rac1 activity”, the “inhibition of MCA formation” value (OVCA 429 cells [10]) was “inhibit” and the “inhibition of ovarian tumor cell migration” value (OVCA 429 cells [11]) was “inhibit”.
For `O=C(c1ccccc1)c1ccc2n1CCC2C(=O)O` (racemic) [ketorolac], the cancer recurrence rates (breast cancer) is listed as “reduced cancer recurrence rates”.
For `CC[C@H](C)C(=O)O[C@H]1C[C@@H](C)C=C2C=C[C@H](C)[C@H](CC[C@@H]3C[C@@H](O)CC(=O)O3)[C@H]21` [Lovastatin], the “Rho GTPase inhibition” value (Rho GTPase) is given as “inhibit Rho GTPase” and the ovarian metastasis (ovarian metastasis) is given as “reduce ovarian metastasis”.
In the case of `CCc1cccc2c3c([nH]c12)[C@@](CC)(CC(=O)O)OCC3` [R-etodolac], the “COX inhibitory activity” value (COX enzymes) is listed as “no COX inhibitory activity” and the “tumor development and metastasis” value (prostate cancer) is listed as “retard tumor development and metastasis”.
